# Laboratory results published in ChEMBL document CHEMBL4888484, “Replenishing the malaria drug discovery pipeline: Screening and hit evaluation of the MMV Hit Generation Library 1 (HGL1) against asexual blood stage Plasmodium falciparum ,using a nano luciferase reporter read-out” (2022).
# Screen size: about 150,000 compounds; about 540 (0.36%) showed an effect of 50% or more. The list shows a part of the results.
# Test system: Plasmodium falciparum
# Assay: Primary screen in NF54 nanoGlo assay, in single point, at 2uM, 72h; a lower Z score goes with more inhibition
# Format: functional, Erythrocyte
# Details: timepoint 72 hour
SMILES,% Inhibition [%],Z score
CC(CO)C(C)NC(=O)c1c(F)c(F)cc(F)c1F (stereo not drawn),-12,1.81
CCOCc1nc(Cc2cccnc2)n(-c2ccc(S(N)(=O)=O)cc2)n1,-12,1.79
Cc1ccc(C)c(S(=O)(=O)N2CCN3C(=O)[C@H](C(C)C)NC(=O)[C@H]3C2)c1,-3,0.31
COCc1csc(NC(=O)NCCc2ncc(C)s2)n1,-12,1.22
COc1cc(C(=O)Nc2cccc(C)n2)ccc1OCc1c(Cl)cccc1Cl,-14,1.63
Cc1cc(C)c(-n2cccc2CNC2CCN(C)CC2)c(C)c1,5,-0.85
O=C1N(CC2CCCCC2)CCC[C@@]1(O)CN1CCOCC1,-7,1.35
CN(C)S(=O)(=O)N(CC#N)Cc1ncc(Cl)cc1Cl,5,-0.76
O=S(=O)(CCC(F)(F)F)NCCn1ccc(-c2cnccn2)n1,14,-1.84
CC(C)[C@H]1NC(=O)[C@@H]2C[C@H](NC(=O)c3cccc4ccccc34)CN2C1=O,-16,1.82
Clc1ccccc1CNC[C@H]1Cn2ccnc2CO1,-9,1.41
Cc1cc(CN(C)Cc2cc3cccnc3nc2C)n[nH]1,-5,0.77
COc1cccn2ncc(C(=O)NC[C@]3(C)C[C@H]3c3ccccc3)c12,-10,1.96
Cc1noc([C@H]2CCCN(C(=O)c3cc4ccccc4s3)C2)n1,0,0.02
CCN(C(=O)c1oc(C2CC2)nc1C)c1ccc(C(F)(F)F)cc1,-5,0.99
Cc1nc(N)sc1CC(=O)N1CCn2nc(C(=O)N3CCCC3)cc2C1,-14,1.93
CC[C@H](NC(=O)N(C)Cc1nccs1)c1ncnn1CC,1,-0.22
Oc1cc(CNCCCN2Cc3ccccc3C2)nc2c(F)cccc12,5,-0.86
COCCc1nc(-c2cc3ncccn3n2)n(CCO)n1,-8,1.63
Cn1nc(C(=O)N[C@H]2CCCc3ccccc32)ccc1=O,-4,0.36
CC[C@@H](C(=O)Nc1ccccc1C(F)(F)F)n1nc(-c2ccc(OC)cc2)c2c(C)onc2c1=O,-9,0.91
Cc1nnnn1-c1ccccc1Oc1ccc(F)cc1,-10,0.98
CC(=O)N1CCCN(C(=O)C[C@]2(c3ccccc3)CC(=O)N(CCCOc3cccnc3)C2=O)CC1,8,-1.08
COC(=O)COc1cc(-c2ccc(Cl)cc2)nc2ccc(NC(=O)Nc3ccccc3C)cc12,8,-0.91
CC(=O)N[C@@H](Cc1c[nH]c2ccccc12)C(=O)N1CCN(S(=O)(=O)c2ccccc2)CC1,17,-2.38
CN1CCN([C@@H]2[C@H](O)[C@H](CO)O[C@@H]2CNC(=O)Nc2ccccc2)CC1,34,-3.84
c1ccc(C2(c3nnc(CC4CCCCC4)o3)CCOCC2)cc1,-15,2.41

SMILES,% Inhibition [%],Z score
CCCCCN1CC(=O)N[C@@H]1c1ccc(OC)c(C#N)c1,-5,0.95
Cc1nc(CNC(=O)N2CCC[C@H](CC(C)C)C2)oc1C,-2,0.24
CC(C)O[C@H]1CN(C(=O)COc2ccc(Cl)cc2Cl)C[C@@H]1O,7,-1.02
Cc1c(NC(=O)[C@@H](N)Cc2ccccc2)cccc1-c1nncn1C,-3,0.66
c1ccc(CN2CCN(C3CCCCCC3)CC2)nc1,4,-0.78
Cc1cccc(OC[C@@H](O)CN(C(=O)NCCCn2ccnc2)C(C)C)c1,-2,0.32
C[C@@H]1CN(CCN(C)C(=O)c2cc(F)cc(Cl)c2O)C[C@H](C)O1,-6,1.14
Cc1cc(-n2ccnc2)ccc1COC(=O)c1ncccc1OCC(F)(F)F,-8,1.52
O=C(O)c1cn2c(n1)[C@@H](c1ccccc1)N(C(=O)COc1ccccc1)CC2,-8,1.23
Cc1cccc2c1NC1(CCN(C(=O)Nc3ccc(Cl)c(Cl)c3)CC1)NC2=O,11,-2.18
CNC(=O)CCCN(C)C(=O)Cc1ccc(C)c(Br)c1,-7,0.93
CC(C)NC(=O)OC1CN(C(=O)c2cc(-c3ccc(F)cc3)[nH]n2)C1,10,-1.04
O=S1(=O)CC[C@H](c2csc(Cc3cccc(F)c3)n2)C1,-12,1.92
CCCCn1nc(-c2ccncc2)nc1CN1CCC[C@H](O)C1,-10,1.17
COc1ccc(CN(Cc2ccco2)C(=O)c2ccccc2C)cc1OCc1nc(CO)cs1,-2,0.3
CC[C@H](C)N(Cc1ccc(OS(C)(=O)=O)cc1)C(=O)NC(C)(C)C,3,-0.44
CCn1cnnc1CCNC(=O)[C@@H]1Cc2ccccc2C(=O)N1,-7,1.44
C[C@H]1C(=O)N(C)CCN1C(=O)COCc1ccccc1,4,-0.64
Cc1nccc(O[C@H]2CCN(C(=O)Cn3ncccc3=O)C2)n1,-8,1.29
O=C(c1cnn2c1OCCC2)N1CCCCC1,-9,1.36
O=C(NCC1CCN(C(=O)c2ccco2)CC1)c1ccco1,7,-0.86
COc1ccc(F)c(F)c1C(=O)N1C[C@H](C)[C@@](O)(C2CC2)C1,-4,0.57
CCC(C)(CC)NC(=O)c1ocnc1C,-4,0.54
COC(C)(C)CNC(=O)N(C)[C@@H](C)c1nc(C)sc1C,-1,0.11
CC1(C)CN(c2cnc(C(=O)O)cn2)Cc2ccccc21,3,-0.43
O=C(COC[C@H]1CCCO1)Nc1[nH]ncc1S(=O)(=O)c1ccc(Cl)cc1,4,-0.74
O=C1Nc2ccc(-c3ccc4c(c3)OCO4)cc2C(=O)N2CCN(C(=O)C3CCCCC3)C[C@H]12,-3,0.5
